From patent US20060217290A1 (published 2006)

Biological target: T1, human IGF-1 receptor (human, UniProt P08069 31-1367)
T1 construct: whole, on cells; Assayed as membrane preparation (P1) of transfected 293EBNA cells, not as intact cells; also called IGF-R; insulin growth factor receptor
Assay: competitive binding SPA, displacement of [125I]IGF-1 from human IGF-1R membranes

T1 sequence (P08069 31-1367): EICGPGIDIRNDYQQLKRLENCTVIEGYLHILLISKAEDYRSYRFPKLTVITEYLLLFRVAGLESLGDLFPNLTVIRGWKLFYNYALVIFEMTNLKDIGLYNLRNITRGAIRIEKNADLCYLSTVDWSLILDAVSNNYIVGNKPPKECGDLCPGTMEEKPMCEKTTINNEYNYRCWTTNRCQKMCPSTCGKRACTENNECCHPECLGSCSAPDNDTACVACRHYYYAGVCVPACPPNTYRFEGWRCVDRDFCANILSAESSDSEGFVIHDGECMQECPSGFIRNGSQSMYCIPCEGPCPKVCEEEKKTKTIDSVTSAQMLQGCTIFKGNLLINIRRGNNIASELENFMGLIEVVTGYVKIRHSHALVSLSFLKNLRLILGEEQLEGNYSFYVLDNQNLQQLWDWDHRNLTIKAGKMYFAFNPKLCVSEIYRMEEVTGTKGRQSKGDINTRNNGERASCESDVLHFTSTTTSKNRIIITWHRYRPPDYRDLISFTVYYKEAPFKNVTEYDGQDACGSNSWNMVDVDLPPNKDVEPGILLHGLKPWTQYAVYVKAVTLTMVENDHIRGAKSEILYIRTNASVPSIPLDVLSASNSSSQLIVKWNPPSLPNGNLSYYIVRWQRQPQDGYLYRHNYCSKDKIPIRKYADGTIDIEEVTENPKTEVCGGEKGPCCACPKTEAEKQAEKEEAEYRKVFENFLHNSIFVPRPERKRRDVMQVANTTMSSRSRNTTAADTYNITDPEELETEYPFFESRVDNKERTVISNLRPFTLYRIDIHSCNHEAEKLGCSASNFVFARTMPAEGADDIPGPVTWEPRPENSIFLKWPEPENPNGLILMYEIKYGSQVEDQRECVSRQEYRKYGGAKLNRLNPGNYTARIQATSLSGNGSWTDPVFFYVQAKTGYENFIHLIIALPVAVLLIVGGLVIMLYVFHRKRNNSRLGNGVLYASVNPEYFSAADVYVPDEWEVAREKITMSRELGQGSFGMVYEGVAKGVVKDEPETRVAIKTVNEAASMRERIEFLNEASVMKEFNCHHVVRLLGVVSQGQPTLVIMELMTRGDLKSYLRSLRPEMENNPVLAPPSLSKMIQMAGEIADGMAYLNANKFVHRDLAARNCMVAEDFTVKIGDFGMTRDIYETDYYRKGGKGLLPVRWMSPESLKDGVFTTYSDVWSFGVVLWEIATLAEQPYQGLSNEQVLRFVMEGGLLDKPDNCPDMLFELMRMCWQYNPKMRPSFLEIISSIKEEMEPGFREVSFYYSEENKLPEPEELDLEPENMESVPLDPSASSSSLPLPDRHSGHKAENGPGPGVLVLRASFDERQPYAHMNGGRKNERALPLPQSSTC

B1: A0^ArgA21^GlyB31^ArgB32^Arg-human insulin (ligand)
chain 1: RGIVEQCCTSICSLYQLENYCG
chain 2: not shown
notes: Insulin analog; Disulfides A7-B7, A20-B19, A6-A11; also called ArgA0, GlyA21, ArgB31, ArgB32-human insulin
- Relative IGF1-R Affinity (Mean): 1.2 relative to recombinant human insulin
